Measured values published in PubChem BioAssay AID1508624 (National Center for Advancing Translational Sciences (NCATS), 2021).
Among all 48,000 compounds or so, about 120 (0.25%) were called active. Roughly 4% stayed inconclusive and do not appear here. Calls follow the shape of the dose curve; as a rule, active = well fitted activation curve with a large enough effect; inconclusive = small, poorly fitted or top-dose-only effect, or another doubt; inactive = no such curve, though single readings can be large or run the other way. Some of the results follow.

Test: Primary qHTS for Identification of Small Molecule Activators of Huntingtin-Antisense Promoter Activity; also: nearly all actives have a fitted effect of over 55% in size
Details: HEK293 HTT-AS promoter firefly luciferase reporter, 24 h; series mostly up to 57.5 µM; activity change, positive = activation: at the top concentration
Summary of the method: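 Firefly luciferase readout (Dual-Glo, 10 min RT) after 24 h, 37 °C compound exposure (final up to 57.5 uM) of HEK293 reporter cells cultured 24 h beforehand; PTC124 at 50 uM final as control inhibitor; activity scaled vehicle 0%, zero RLU -100%.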

Activity change, positive = activation, inactive:
CC(NC(=O)c1ccc2c(c1)N(Cc1ccc(Cl)cc1)C(=O)c1ccccc1S2=O)c1ccccc1 (stereo not given) -30.2%
COc1ccc(Cl)cc1NC(=O)Cn1cnc2c1c(=O)n(C)c(=O)n2C -0.84%
CC(C)NC(=O)C1CCCN(c2ncnc3c2nc2n3CCCCC2)C1 (stereo not given) -21.3%
CC(CNS(=O)(=O)c1ccc2c(c1)CC(=O)N2C)c1ccccc1 (stereo not given) -7.86%
Cc1ccc(C(C)C)c(OCCCn2c(=O)oc3ccccc32)c1 -18%
CCOC(=O)c1c(C)oc2nc(C)nc(NCCCN3CCN(c4ccc(F)cc4)CC3)c12 -15.1%
COc1ccc(C(=O)NCCn2cc(SCc3cc(C)ccc3C)c3ccccc32)cc1 -62.2%
COc1ccccc1NC(=O)c1ccc2oc(=O)c(S(=O)(=O)c3ccccc3)cc2c1 14%
Cc1cc(N2CCN(c3cccc(C)c3C)CC2)n2nc(C)c(-c3ccc(Cl)cc3)c2n1 -19.1%
CCOc1ccc(C2c3c(oc4ccccc4c3=O)C(=O)N2c2nnc(C)s2)cc1OC (stereo not given) -3.14% [at 11.5 µM, percent change from vehicle, -100% = no light]
COc1ccc(-n2c(-c3ccco3)nc3c(cnn3-c3ccccc3C)c2=O)cc1 -13.5%
Cc1ccccc1CNC(=O)c1cc2cc(S(=O)(=O)N3CCCCC3)ccc2n1C -31.3%
CO[C@H]1C=CO[C@@]2(C)Oc3c(C)c(O)c4c(O)c(c5c(c4c3C2=O)NC2(CCN(CC(C)C)CC2)N=5)=NC(=O)C(C)=CC=C[C@H](C)[C@H](O)[C@@H](C)[C@@H](O)[C@@H](C)[C@H](OC(C)=O)[C@H]1C -5.09%
CCOC(=O)c1cc(NC(=O)c2ccc(Cl)cc2)c(=O)n2c1oc1ccccc12 -9.83%
COc1ccc(Nc2c3c(nc4ccc(NC(=O)/C=C/c5cccc(OC)c5OC)cc24)CCCC3)cc1OC -95%
NC(=O)c1ncn([C@@H]2O[C@H](CO)[C@@H](O)[C@H]2O)c1O -3.59%
O=C(Nc1ccc(Br)cc1)c1cccc(C(=O)Nc2ccc(Br)cc2)c1 -23.4%
O=S(=O)(c1ccc(Cl)cc1)c1nc(-c2ccccc2)oc1N1CCN(c2ccccc2)CC1 -6.45%
CCOc1ccc(C2CC(=O)c3c([nH]c(C(=O)OC4CCC(C)CC4)c3C)C2)cc1 (stereo not given) -1.46%
COc1ccccc1N1CCN(C(=O)CN2C(=O)COc3ccc(S(=O)(=O)N4CCCC4)cc32)CC1 -1.4%
CCc1nc(SCc2cc(=O)c3cc(C)ccc3[nH]2)n[nH]1 -15.2%
CCc1cccc(NC(=O)CSc2nc3ccsc3c(=O)n2CC)c1 -38.5%
Cc1ccc(CNC(=O)Cn2c(=O)n(Cc3ccccc3)c(=O)c3sc4ccccc4c32)cc1 -15.2%
CCCN1CCN(c2cc3c(cc2F)c(=O)c(S(=O)(=O)c2ccc(Cl)cc2)cn3C)CC1 -12.1%
Cc1cc(C)c2sc(NC(=O)c3ccc(S(=O)(=O)N4CCOCC4)cc3)nc2c1 -37.2%
COc1ccc(C(=O)NCC(c2ccc(N(C)C)cc2)N2CCc3ccccc32)cc1 (stereo not given) -17.7%
Cn1c(=O)n(C)c2cc(N3CCOCC3)c(NC(=O)c3c(F)cccc3F)cc21 -7.35%
CCc1cc2c(-c3ccccc3)cc(=O)oc2c2c1OCN(Cc1ccc(F)cc1)C2 -34.6%
COc1cc(OC)c(NC(=O)Nc2c(C)n(C)n(-c3ccccc3)c2=O)cc1Cl -1.34%
O=C(NC1CC(=O)N(c2cccc(F)c2)C1)C(c1ccccc1)c1ccccc1 (stereo not given) -19.8%
CCC(Oc1ccccc1)C(=O)Nc1ccc(OCc2cc(=O)n3ccccc3n2)cc1 (stereo not given) 14.9%
CCC1C(=O)OCC1Cc1cncn1C (stereo not given) -5.62%
Cc1cn([C@@H]2C[C@@H](O)[C@H](CO)O2)c(=O)[nH]c1=O -16.1%
COC(=O)c1ccccc1NC(=O)c1ccc2c(=O)n3c(nc2c1)CCCCC3 -4.42%
CCOc1ccc(CNC(=O)C2Cc3ccccc3N2C(=O)CC)cc1 (stereo not given) -4.92%
CC(C)(C)c1ccc(C(=O)N2CCC(c3nc(-c4ccc(S(=O)(=O)N5CCCC5)cc4)no3)CC2)cc1 -23.9%
CCN(CC)CCNC(=O)c1ccc(CSc2nc3ccncc3n2Cc2cccc(F)c2)cc1 -5.26%
CCOc1ccc(-c2cc3c(=O)n(Cc4nc(-c5ccc(OC(C)C)cc5)oc4C)ccn3n2)cc1Cl -23.7%
O=C(Cn1nc(N2CCN(c3ccccc3)CC2)ccc1=O)Nc1ccc(F)cc1F -11.4%
COc1ccc(CNC(=O)C2CCCN(C(=O)N3CCOc4ccccc43)C2)cc1 (stereo not given) -30.1%
COc1cc(C2SC[C@H]3C(=O)N(c4ccccc4)C(=O)N23)cc(OC)c1OC (stereo not given in full) -32.6%
CCCN(CCC)S(=O)(=O)c1ccc2c(c1)N(CC(=O)NCc1ccc(F)cc1Cl)C(=O)CS2 -36.8%
Cc1ccccc1-c1nc(CN2CCC(C(=O)NCCc3ccccc3)CC2)c(C)o1 -24.7%
O=C(CCCn1c(=O)c2ccccc2n(CC(=O)Nc2cccc(C(F)(F)F)c2)c1=O)NCc1ccc2c(c1)OCO2 -11.9%
Cc1cc2ccccc2n1CCNC(=O)c1cc(C(F)(F)F)cc(C(F)(F)F)c1 -27.5%
COCCn1c(SCC(=O)c2ccc(C)cc2C)nc2cc(C(=O)NC3CCCC3)ccc2c1=O 6.02%
Cn1nnc2c(N3CCN(c4ccccc4)CC3)ncnc21 30.4%
CCOc1ccc(N(CC)S(=O)(=O)N2CCCC(C(=O)Nc3cc(Cl)ccc3C)C2)cc1 (stereo not given) -33.3%
CC(=O)Nc1ccc(S(=O)(=O)Nc2ccc([N+](=O)[O-])cc2)cc1 -5.06%
CC(C)COc1ccc(C2=NC(c3ccncc3)=Nc3ccc(F)cc3N2)cc1 4.12%
CC(C)c1ccc(NC(=O)c2cc(S(=O)(=O)N3CCCCC3)cn2C)cc1 -11.2%
COc1ccccc1CNc1nc2ccc(Cl)cc2n2cnnc12 -3.4%
CN1CCN(C(=O)Cn2c(-c3cccs3)cc3cc(Cl)ccc32)CC1 -27.3%
Cc1ccc(C(=O)Nc2ccc(S(=O)(=O)O)c3cc(S(=O)(=O)O)cc(S(=O)(=O)O)c23)cc1NC(=O)c1cccc(NC(=O)Nc2cccc(C(=O)Nc3cc(C(=O)Nc4ccc(S(=O)(=O)O)c5cc(S(=O)(=O)O)cc(S(=O)(=O)O)c45)ccc3C)c2)c1
Cc1ccccc1OC(=O)CSc1nnc(-c2ccc3c(c2)OCO3)o1 -36.4%
Cc1ccc(Cl)cc1N1CCN(C(=O)C2CCN(S(=O)(=O)c3cccc4nonc34)CC2)CC1 -42%
COC(=O)c1cc(NC(=O)c2nn(C)c3c2CSc2ccccc2-3)cc(C(=O)OC)c1 1.43%
CN(Cc1ccc(F)cc1)S(=O)(=O)c1nnc(NC(=O)c2ccccc2Br)s1 -38.9%
O=C(Cn1c(=O)n(Cc2ccc(Cl)cc2)c(=O)c2cccnc21)Nc1ccccc1C(F)(F)F -9.63%
Cc1ccc(NC(=O)CNC(=O)Cn2c(C)cc3ccccc3c2=O)cc1F -4.48%
Cc1ccc(-n2nc3c(=O)n(CCCC(=O)NCc4ccccc4C)nc(C)c3c2C)cc1 -14.7%
COCCNC(=O)c1c(-c2ccccc2)c(-c2ccccc2)nn(C)c1=O -7.09%
Cc1ccc([N+](=O)[O-])cc1S(=O)(=O)N1CCn2cccc2C1c1ccccc1F (stereo not given) -10.9%
CCOC(=O)c1c(C)c(-c2ccccc2)n(CC(=O)NCc2cccc(OC)c2)c1C -6.82%
O=C(NCc1cccn1Cc1ccccc1)Nc1cccc(C(F)(F)F)c1 -30.5%
Cn1c(=O)oc2cc(S(=O)(=O)N3CCC(C(=O)NCc4ccccc4)CC3)ccc21 -16.7%
CC(=O)c1ccc(NC(=O)Cn2cnc3nc4c(cc3c2=O)CC(C)CC4)cc1 (stereo not given) 22%
CCOc1cccc(C2c3[nH]c4ccccc4c3CCN2C(=O)c2ccccc2F)c1 (stereo not given) -29.9%
CCOc1ccccc1C(=O)Nc1ccc(S(=O)(=O)Nc2onc(C)c2C)cc1 -18.9%
CCOC(=O)c1c(SCC(=O)Nc2nc3ccccc3s2)nc(=O)[nH]c1C -19.1%
CCC(Sc1nnc(C)n2c1cc1sccc12)C(=O)Nc1ccccc1F (stereo not given) -39.7%
CCc1cc(C(N)=S)ccn1
Cc1cccc(-c2nc3scc(CCNS(=O)(=O)c4c(C)noc4C)n3n2)c1 -22%
CCOC(=O)c1cnc2cc(C(F)(F)F)ccc2c1N1CCN(c2cccc(Cl)c2)CC1 -23.5% [at 11.5 µM, percent change from vehicle, -100% = no light]
CCOc1cc(CNC(=O)c2ccc(Cn3c(=O)c4cccn4c4cccnc43)cc2)ccc1OC -17.8%
Cc1ccc(NC(=O)CSc2nc3ccc(NC(=O)c4cccs4)cc3s2)cc1 -11.7%
O=C(NCc1cccn1Cc1ccccc1)Nc1ccc(Br)cc1F -21.3%
CC(=O)Nc1c(I)c(NC(C)=O)c(I)c(C(=O)O)c1I -8.53%
COc1cccc(N2CCN(c3ncnc4c3c(-c3ccccc3)cn4-c3ccc(C)cc3)CC2)c1 -9.92%
CCCc1cc(=O)[nH]c2nnc(SCC(=O)Nc3ccc(OC)cc3)n12 0.138%
O=C(COCc1cc(-c2ccc(F)cc2)on1)Nc1cccc(Cl)c1Cl 4%
O=C(Nc1ccccc1C(=O)OCc1cc(=O)n2ccsc2n1)c1ccc(Cl)cc1 27%
Cc1ccc(S(=O)(=O)c2nnn3c2nc(NC(C)c2ccccc2)c2sccc23)cc1 (stereo not given) 9.27%
CCOc1ccc(N2CC(NC(=O)c3ccc(S(=O)(=O)N4CCCC4)cc3)CC2=O)cc1 (stereo not given) -24.7%
Cc1ccc(S(=O)(=O)NC(=O)NC2CCCCC2)cc1 -4.86%
COc1ccccc1CNC(=O)CCNS(=O)(=O)c1ccc2c(c1)CCCC(=O)N2 -6.86%
CCN(CC)S(=O)(=O)c1ccc2c(c1)nc(CN(C)C(=O)Nc1ccc(Cl)cc1)n2C 8.09%
CCOC(=O)c1c(C)[nH]c(C)c1S(=O)(=O)NCC(=O)NCc1ccc(C)cc1 6.16%
Cc1ccc(Cl)cc1NC(=O)Nc1nnc(N2CCCC(C)C2)s1 (stereo not given) 2.39%
Cn1c(=O)c2c(-c3cccc(Br)c3)n(C(C)(C)CO)cc2n(C)c1=O -8.48%
